The text below walks through data of a collection of fitness landscapes (doi:10.1126/science.1257360).

First the molecules themselves.
B1: PhoQ; a variant is named by its letters at X, in order, P23837 (parent)
chain: MKKLLRLFFPLSLRVRFLLATAAVVLVLSLAYGMVALIGYSVSFDKTTFRLLRGESNLFYTLAKWENNKLHVELPENIDKQSPTMTLIYDENGQLLWAQRDVPWLMKMIQPDWLKSNGFHEIEADVNDTSLLLSGDHSIQQQLQEVREDDDDAEMTHSVAVNVYPATSRMPKLTIVVVDTIPVELKSSYMVWSWFIYVLSANLLLVIPLLWVAAWWSLRPIEALAKEVRELEEHNRELLNPATTRELTSLVRNLNRLLKSERERYDKYRTTLTDLTHSLKTPLXXLQXXLRSLRSEKMSVSDAEPVMLEQISRISQQIGYYLHRASMRGGTLLSRELHPVAPLLDNLTSALNKVYQRKGVNISLDISPEISFVGEQNDFVEVMGNVLDNACKYCLEFVEISARQTDEHLYIVVEDDGPGIPLSKREVIFDRGQRVDTLRPGQGVGLAVAREITEQYEGKIVAGESMLGGARMEVIFGRQHSAPKDE

The other results are listed elsewhere or left out. Bounds are passed on as bounds.

The variants in this test derive from B1. Kind of test: enrichment ratio after two sorts for PhoP signalling (ratio (wild type AVST 3.29)); higher = more functional. As to conditions: with PhoP (E. coli).
ASCP: the enrichment ratio is at most 0.25. Take NYRN: the enrichment ratio was at most 0.25. As to EAMS, the enrichment ratio is at most 0.25.

As to PAYL, the enrichment ratio was at most 0.25.

ANPF: the enrichment ratio was at most 0.25. As for PPVM, the enrichment ratio was at most 0.25. For the variant YQHY, the enrichment ratio is at most 0.25. As to IQPI, the enrichment ratio is at most 0.25. With SGFD, the enrichment ratio is at most 0.25. On to WPDK, for which the enrichment ratio was at most 0.25. For VKKP, the enrichment ratio is at most 0.25. In the case of SKVR, the enrichment ratio is at most 0.25. For EVCT, the enrichment ratio is at most 0.25. As to NYTM, the enrichment ratio is at most 0.25. IILM: the enrichment ratio came out at 0.265. On to LVFH, for which the enrichment ratio is at most 0.25. FRIF: the enrichment ratio was at most 0.25. As for PKFH, the figure is at most 0.25.

In the case of TYNQ, the enrichment ratio was determined as 6.02.

Regarding PRIR, the enrichment ratio was at most 0.25. As for NEKH, the figure is at most 0.25; as for MLFF, at most 0.25; as for WTMR, at most 0.25. Consider WAEP, for which the enrichment ratio is at most 0.25. As for EVSM, the figure is 7.73; as for MYRK, at most 0.25.

As to WMMP, the enrichment ratio is at most 0.25. As for NFAY, the figure is at most 0.25; as for EDQE, at most 0.25. Consider QKNF, for which the enrichment ratio is at most 0.25. As to QEYI, the enrichment ratio came to 13.9.

Take KARP: the enrichment ratio was at most 0.25. For QTAC, the enrichment ratio was at most 0.25.

On to TIER, for which the enrichment ratio amounted to 1.58.

As to HSNH, the enrichment ratio was at most 0.25.

Turning to SVHH, the enrichment ratio is at most 0.25. The value for RIKW was at most 0.25.

Take WNHD: the enrichment ratio is at most 0.25.

Take RKSN: the enrichment ratio was at most 0.25. Turning to PFEM, the enrichment ratio is at most 0.25. The value for RWIT was at most 0.25. With QEMP, the enrichment ratio is at most 0.25. In the case of NVIT, the enrichment ratio was at most 0.25. NAPS: the enrichment ratio was at most 0.25.

On to MPQS, for which the enrichment ratio was at most 0.25. As for NIAS, the figure is at most 0.25; as for MPSK, at most 0.25. Consider IMIM, for which the enrichment ratio was at most 0.25.

With NFIK, the enrichment ratio was at most 0.25. Turning to DTHA, the enrichment ratio was at most 0.25. With PYML, the enrichment ratio was at most 0.25. For RAHF, the enrichment ratio was at most 0.25. For the variant QCRA, the enrichment ratio is at most 0.25.

For INHH, the enrichment ratio is at most 0.25. As for NTHT, the figure is at most 0.25. The value for MFTG was at most 0.25; that for ILNV was at most 0.25.

YWCH: the enrichment ratio was at most 0.25. The value for GVML was 13.4; that for GWTK was at most 0.25; that for KDLS was at most 0.25. Regarding MKFD, the enrichment ratio is at most 0.25. As for LGRW, the enrichment ratio is at most 0.25. As for NVGR, the enrichment ratio is at most 0.25.

On to WIKS, for which the enrichment ratio was at most 0.25. For the variant QNVH, the enrichment ratio was at most 0.25. Take FKRE: the enrichment ratio was at most 0.25.

Consider KCEF, for which the enrichment ratio is at most 0.25. The value for SMHH was at most 0.25. Take PVND: the enrichment ratio is at most 0.25.

Take NFGS: the enrichment ratio was at most 0.25. Regarding MNMF, the enrichment ratio is at most 0.25. IKII: the enrichment ratio is at most 0.25. In the case of LMGL, the enrichment ratio is at most 0.25. With PAWC, the enrichment ratio is at most 0.25. For VCQF, the enrichment ratio is at most 0.25. Consider EMAW, for which the enrichment ratio is at most 0.25. In the case of SLCE, the enrichment ratio amounted to 4.84. Consider RRRI, for which the enrichment ratio is at most 0.25. Turning to FMWS, the enrichment ratio was at most 0.25. On to RDCF, for which the enrichment ratio was at most 0.25. As for KSAN, the figure is at most 0.25. Turning to DFEM, the enrichment ratio was at most 0.25. As to IQSP, the enrichment ratio is at most 0.25. As for YTGC, the figure is at most 0.25; as for IDHW, at most 0.25.

As to STYV, the enrichment ratio was at most 0.25. Take HLFG: the enrichment ratio is at most 0.25.

For the variant LHPC, the enrichment ratio was at most 0.25. The value for STTW was 2.13. For WLNW, the enrichment ratio was at most 0.25. As for KSQG, the enrichment ratio is at most 0.25. As to ITNV, the enrichment ratio is at most 0.25. For the variant RNTR, the enrichment ratio was at most 0.25. With FPNM, the enrichment ratio was at most 0.25. Turning to DCFK, the enrichment ratio is at most 0.25. With TDDR, the enrichment ratio was at most 0.25. For the variant MVIR, the enrichment ratio is at most 0.25. RMES: the enrichment ratio was at most 0.25. In the case of MVCQ, the enrichment ratio was at most 0.25. YRTT: the enrichment ratio was at most 0.25. As for ADGQ, the enrichment ratio is at most 0.25. As to SCLC, the enrichment ratio was 12.4. As to FPAE, the enrichment ratio was at most 0.25. As for VTAL, the figure is 3.44; as for SEKG, at most 0.25; as for TQLS, 17.6. With DKKW, the enrichment ratio was at most 0.25. For TSWL, the enrichment ratio came out at 9.64. With RHSS, the enrichment ratio is at most 0.25. Turning to PQLF, the enrichment ratio was at most 0.25. Take QRVC: the enrichment ratio is at most 0.25. Regarding QSRF, the enrichment ratio is at most 0.25. With MQHR, the enrichment ratio was at most 0.25. For the variant EKIG, the enrichment ratio was at most 0.25. For the variant FNFQ, the enrichment ratio was at most 0.25. As for FPKW, the enrichment ratio was at most 0.25.

As to RRFL, the enrichment ratio is at most 0.25. The value for AAPS was at most 0.25; that for WSCF was at most 0.25. For the variant TDCF, the enrichment ratio was 5.11. For the variant VHVH, the enrichment ratio was at most 0.25.

With LCVK, the enrichment ratio was at most 0.25. As for IADV, the enrichment ratio is at most 0.25. Turning to NYNC, the enrichment ratio was at most 0.25. The value for GNWY was at most 0.25.

DTFT: the enrichment ratio is at most 0.25.

As for TGWT, the enrichment ratio amounted to 10.5. Regarding NCHH, the enrichment ratio is at most 0.25.

As to PQRC, the enrichment ratio was at most 0.25. On to EFDG, for which the enrichment ratio is at most 0.25. Consider AVQS, for which the enrichment ratio is at most 0.25. For the variant IQCW, the enrichment ratio is at most 0.25. With GVMN, the enrichment ratio was at most 0.25.

As to TVPY, the enrichment ratio is at most 0.25.

As to AHVF, the enrichment ratio is at most 0.25. Consider FSKS, for which the enrichment ratio is at most 0.25.

For ALPC, the enrichment ratio was at most 0.25. On to LVTC, for which the enrichment ratio is at most 0.25.

In the case of AGSF, the enrichment ratio is 9.77. Consider NPDW, for which the enrichment ratio was at most 0.25.

As for KAQF, the enrichment ratio is at most 0.25. The value for WMNC was at most 0.25.

In the case of PRKI, the enrichment ratio is at most 0.25. As for HHDH, the enrichment ratio is at most 0.25.

In the case of QMNQ, the enrichment ratio turned out to be 8.17. QGYL: the enrichment ratio amounted to 9.62. On to INLS, for which the enrichment ratio was 1.62. HSPM: the enrichment ratio is at most 0.25. As for MKVP, the figure is at most 0.25; as for LCCH, at most 0.25; as for GGLI, 11.9. As for EQTN, the enrichment ratio was at most 0.25.
